From PubChem BioAssay AID2147 (National Center for Advancing Translational Sciences (NCATS), 2009)
Values joined by “and” are separate entries in the source; they are usually repeats but may differ in a detail not shown here. Equal values may be shown once. The campaign covered roughly 230,000 compounds. About 3,600 (1.6%) were called active. The inconclusive results got no clear call from the source; some entries with a clear call stand among them for comparison. The call rests on the fitted dose curve; in most records, active means well fitted inhibition curve with a large enough effect (not every such curve was filed as active); inconclusive means small, poorly fitted or top-dose-only effect, or another doubt; inactive means no such curve, though single readings can be large or run the other way. Where the call is inconclusive, the potency comes from a doubtful curve fit.
Further: nearly all actives have a fitted effect of over 50% in size.
Potency means the concentration at half of the fitted maximal effect; tags describe the fitted curve by direction and shape.

What follows are compounds tested against Lysine-specific demethylase 4E (Homo sapiens) (UniProt B2RXH2) (assay: qHTS Assay for Inhibitors of Human Jumonji Domain Containing 2E (JMJD2E)). Conditions: JMJD2E catalytic domain, FDH-coupled NADH fluorescence (FDH is formaldehyde dehydrogenase); series mostly up to 57.1 µM.
UniProt B2RXH2, sequence (B2RXH2 whole entry, looked up, the tested form may be a part): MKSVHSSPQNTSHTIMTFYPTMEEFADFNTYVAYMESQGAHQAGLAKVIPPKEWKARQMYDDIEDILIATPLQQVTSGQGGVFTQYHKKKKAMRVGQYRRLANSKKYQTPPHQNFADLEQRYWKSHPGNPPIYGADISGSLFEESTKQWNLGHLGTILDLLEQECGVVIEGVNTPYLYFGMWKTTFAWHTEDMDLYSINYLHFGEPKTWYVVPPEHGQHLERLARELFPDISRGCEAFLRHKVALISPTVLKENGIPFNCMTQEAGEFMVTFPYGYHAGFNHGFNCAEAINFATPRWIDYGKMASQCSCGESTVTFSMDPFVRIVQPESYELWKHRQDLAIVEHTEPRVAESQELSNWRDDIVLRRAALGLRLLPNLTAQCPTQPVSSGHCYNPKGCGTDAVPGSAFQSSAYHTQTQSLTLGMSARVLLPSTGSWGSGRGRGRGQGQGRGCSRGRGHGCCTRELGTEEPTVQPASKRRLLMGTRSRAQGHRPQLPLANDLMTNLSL
With `Cn1cccc1Cc1nnc(SCC(=O)NCc2ccco2)n1-c1ccc(F)cc1` the Potency was inconclusive: 39.8 µM [inhibitor, single point].
For `CCC(=O)Nc1ccc(C(=O)NCCCn2ccnc2)cc1`, the Potency was inconclusive: 25.1 µM [inhibitor, single point].
In the case of `Cc1cc(C)cc(N=Cc2ccc([N+](=O)[O-])s2)c1`, the Potency is reported as inconclusive: 35.5 µM [inhibitor, single point].
In the case of `N#CC(Cc1ccc(O)c(O)c1)C(=O)N1CCc2ccccc21` (stereo not given), the Potency is reported as active: 20 µM.
With `Cn1cccc1Cc1nnc(SCC(=O)NC2CCCCC2)n1CCc1ccccc1` the Potency was inconclusive: 39.8 µM [inhibitor, single point].
For `Cc1cc(C)n(-c2cccc(Cl)c2C#N)n1`, the Potency was inconclusive: 25.1 µM [inhibitor, single point].
In the case of `C=CCN(c1ccccc1)S(=O)(=O)c1cccc(C(=O)Oc2ccc3c(C)cc(=O)oc3c2)c1`, the Potency is reported as inconclusive: 28.2 µM [inhibitor, partial curve].
`Cc1ccccc1SCC(=O)OCC(=O)Nc1ccc(N(C)C)cc1` was tested, and the Potency was “inactive”.
For `CCOC(=O)/C(=C\c1cn(C)c2ccccc12)[N+](=O)[O-]`, the Potency was “inactive”.
In the case of `Cc1ccc(CN(C(=O)c2cc3ccccc3oc2=O)C2CCS(=O)(=O)C2)cc1` (stereo not given), the Potency is reported as inconclusive: 39.8 µM [inhibitor, single point].
In the case of `O=C(N/N=C/c1ccc[nH]1)c1ccc(COc2cccc3cccnc23)cc1`, the Potency is reported as “inactive”.
`O=c1c(-c2cccc3ccccc23)[n+]([O-])c2ccccc2n1O` was tested, and the Potency was inconclusive: 39.8 µM [inhibitor, single point].
In the case of `COC(=O)NC1C=CCCC1C(C)=O` (stereo not given), the Potency is reported as “inactive”.
In the case of `O=C(Nc1ccccc1N1CCCCC1)c1ccc(-c2cccc(Cl)c2)o1`, the Potency is reported as “inactive”.
`CCCc1nn(C)c2c(=O)[nH]c(-c3cc(S(=O)(=O)Nc4ccc(NC(C)=O)cc4)ccc3OCC)nc12` was tested, and the Potency was “inactive”.
In the case of `COc1ccccc1Oc1coc2cc(O)ccc2c1=O`, the Potency is reported as inconclusive: 35.5 µM [inhibitor, partial curve] and inconclusive: 31.6 µM [inhibitor, partial curve].
With `Cc1c(Cl)c(C(=O)NNC(=S)NCc2ccco2)nn1C` the Potency was inconclusive: 39.8 µM [inhibitor, single point].
With `CN1/C(=C\C(=S)NC(=O)c2cccc(Br)c2)C(C)(C)c2ccccc21` the Potency was “inactive”.
With `COC(=O)C1=C(C(=O)OC)C(c2cc([N+](=O)[O-])ccc2O)c2sc(=O)[nH]c2S1` (stereo not given) the Potency was inconclusive: 22.4 µM [inhibitor, single point].
With `Cc1ccc(-c2cccc(C3CC=CC4C3C(=O)N(Cc3ccccc3)C4c3ccc(C(F)(F)F)cc3)c2)cc1` (stereo not given) the Potency was inconclusive: 39.8 µM [inhibitor, single point].
